{"source": "the supplement of paper PMC3656093", "note": "± gives the standard deviation of the averaged measurements. Whole data set: some 1,900 compounds, median “CD40L-induced NF-kB luciferase activity, plate-corrected, relative to DMSO (0) and IKK inhibitor VII (-100) controls” near 0.032, cut for the lowest 2% near -26. This is one part of the list."}
{"system": "BL2-NFkB-Luc", "test": "CD40L-induced NF-kB luciferase activity, plate-corrected, relative to DMSO (0) and IKK inhibitor VII (-100) controls (% normalized activity); higher = more NF-kB reporter activity (less inhibition)", "details": "9.4 µM; stimulus: tCD40L 64 ng/ml; 4.5 h", "procedure": "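BL2 B cells with a stable NF-kB response-element luciferase reporter (BL2-NFkB-Luc), 384-well. Cells were pre-incubated with compound at 9.4 uM for 1 h at 37 C, then stimulated with 64 ng/ml trimerized CD40L for 4.5 h; luciferase was read with Steady-Glo. Signal was normalised per plate in Genedata (median DMSO neutral control = 0, median IKK inhibitor VII at 50 uM = -100) with Assay Median plate-pattern correction; duplicate plates.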"}
{"smiles": "O=C(Cc1ccccc1)NCC(=O)OCC(=O)c1ccccc1Cl", "CD40L-induced NF-kB luciferase activity": "-3.84 ± 5.3"}
{"smiles": "Cc1cnc(C(=O)N2CCCC(C(=O)c3ccc(Cl)cc3C)C2)cn1", "note": "(stereo not given)", "CD40L-induced NF-kB luciferase activity": "-3.18 ± 1.1"}
{"smiles": "COc1ccc(-c2nc(C)c(C(C)=O)n2O)cc1OC", "CD40L-induced NF-kB luciferase activity": "5.47 ± 2.8"}
{"smiles": "Cc1cc(C=NO)c(C)n1-c1ccc(Br)cc1", "CD40L-induced NF-kB luciferase activity": "-0.84 ± 0.39"}
{"smiles": "CC(=O)NC(NC(=S)N1CCCCCC1)C(Cl)(Cl)Cl", "note": "(stereo not given)", "CD40L-induced NF-kB luciferase activity": "-1.31 ± 1.2"}
{"smiles": "COc1cccc(C2CC(=O)C3=C(C2)Nc2ccccc2N(C(=O)CCC(=O)O)C3c2ccc(F)cc2)c1", "note": "(stereo not given)", "CD40L-induced NF-kB luciferase activity": "-1.96 ± 1.7"}
{"smiles": "CC(=O)NC(Cc1ccccc1)C(=O)OCC(=O)c1ccccc1", "note": "(stereo not given)", "CD40L-induced NF-kB luciferase activity": "-1.42 ± 3.2"}
{"smiles": "Cc1ccc2occ(C(=O)c3ccco3)c(=O)c2c1", "CD40L-induced NF-kB luciferase activity": "23.3 ± 3.3"}
{"smiles": "O=C(NC(CO)Cc1ccc([N+](=O)[O-])cc1)C(Cl)Cl", "note": "(stereo not given)", "CD40L-induced NF-kB luciferase activity": "1.27 ± 0.15"}
{"smiles": "COc1ccc(C(=O)/C=C/c2ccc(OC(=O)c3cc(OC)c(OC)c(OC)c3)cc2)cc1", "CD40L-induced NF-kB luciferase activity": "-7.39 ± 2.8"}
{"smiles": "O=C1NC2(Nc3ccccc31)C(=O)Nc1ccc(Br)cc12", "note": "(stereo not given)", "CD40L-induced NF-kB luciferase activity": "1.79 ± 3.5"}
{"smiles": "COc1ccc2c(c1OC)C(=O)NC(C)=C(C(=O)OC(C)(C)C)C2O", "note": "(stereo not given)", "CD40L-induced NF-kB luciferase activity": "-5.18 ± 8.2"}
{"smiles": "Cc1nc(C(=O)Nc2ccccc2Cl)cc2c1[nH]c1ccccc12", "CD40L-induced NF-kB luciferase activity": "10 ± 1.4"}
{"smiles": "CCCCC[C@H](O)/C=C/[C@@H]1[C@@H](C/C=C\\CCCC(=O)O)[C@@H](O)C[C@H]1O", "CD40L-induced NF-kB luciferase activity": "-2.36 ± 2.1"}
{"smiles": "CC(COc1ccccc1)N(CCCl)Cc1ccccc1", "note": "(stereo not given)", "CD40L-induced NF-kB luciferase activity": "-2.44 ± 8.4"}
{"smiles": "CCCNC(C)C(=O)Nc1ccccc1C", "note": "(stereo not given)", "CD40L-induced NF-kB luciferase activity": "1.52 ± 0.94"}
{"smiles": "COc1ccc(CN(CCN(C)C)c2ccccn2)cc1", "CD40L-induced NF-kB luciferase activity": "0.829 ± 0.31"}
{"smiles": "CCOC(=O)C(Cc1cc(C(C)=O)ccc1OC(C)C)C(=O)OCC", "CD40L-induced NF-kB luciferase activity": "2.32 ± 2.5"}
{"smiles": "CC(C)(C)N(Cc1ccccc1)C(=O)c1ccc(Br)o1", "CD40L-induced NF-kB luciferase activity": "-1.84 ± 1.1"}
{"smiles": "COc1cc(C2NCCc3c2[nH]c2ccccc32)ccc1OC(C)C", "note": "(stereo not given)", "CD40L-induced NF-kB luciferase activity": "0.685 ± 0.022"}
{"smiles": "NC(=O)N1c2ccccc2C=Cc2ccccc21", "CD40L-induced NF-kB luciferase activity": "-2.95 ± 4.9"}
{"smiles": "COc1ccc2oc(-c3ccco3)cc(=O)c2c1", "CD40L-induced NF-kB luciferase activity": "119 ± 6.9"}
{"smiles": "CCOc1cc2oc(=O)c3c(c2cc1Cl)CCC3", "CD40L-induced NF-kB luciferase activity": "4.23 ± 1.7"}
{"smiles": "COc1cc2c(cc1OC)C(c1cc3ccccc3oc1=O)=NC(C)(C)C2", "CD40L-induced NF-kB luciferase activity": "-0.782 ± 0.12"}
{"smiles": "CCNC(=O)C12CCC(C)(C(=O)O1)C2(C)C", "note": "(stereo not given)", "CD40L-induced NF-kB luciferase activity": "2.51 ± 3.4"}
{"smiles": "CN(C)CCN(Cc1cccs1)c1ccccn1", "CD40L-induced NF-kB luciferase activity": "-0.4 ± 1.3"}
{"smiles": "NC(=O)[C@@H]1[C@@H]2C(=O)N(c3ccc(F)cc3)C(=O)[C@@H]2[C@H]2C=Cc3ccccc3N21", "CD40L-induced NF-kB luciferase activity": "0.397 ± 0.3"}
{"smiles": "CCOC(=O)C1(CCCc2ccccc2)CCN(C2CCN(C(C)=O)CC2)CC1", "CD40L-induced NF-kB luciferase activity": "-2.72 ± 0.18"}
{"smiles": "COc1ccc2[nH]c3c(c2c1)CCNC3C1CC=C(C)CC1", "note": "(stereo not given)", "CD40L-induced NF-kB luciferase activity": "2.73 ± 1.5"}
{"smiles": "CN(Cc1ccccc1)CC(O)COc1ccc(CNCc2cccnc2)cc1", "note": "(stereo not given)", "CD40L-induced NF-kB luciferase activity": "-2.49 ± 2.2"}
{"smiles": "Cc1cc(C(=O)Nc2ccccc2C(=O)N2CCCCC2)ccc1[N+](=O)[O-]", "CD40L-induced NF-kB luciferase activity": "-2.36 ± 13"}
{"smiles": "COc1cc(=O)n(C)c2ccccc12", "CD40L-induced NF-kB luciferase activity": "0.654 ± 4.3"}
{"smiles": "COc1ccc(N2C(=O)C3CCCN3C2=O)cc1", "note": "(stereo not given)", "CD40L-induced NF-kB luciferase activity": "3.27 ± 8.9"}
{"smiles": "O=Cc1ccccc1Oc1ccccc1", "CD40L-induced NF-kB luciferase activity": "5.78 ± 6.1"}
{"smiles": "COc1cc(-c2cccs2)cc(=O)c2c(C)oc(C)c12", "CD40L-induced NF-kB luciferase activity": "-1.01 ± 0.32"}
{"smiles": "CN(C)c1ccc(Nc2c3c4c(cccc4n(C)c2=O)C(=O)c2ccccc2-3)cc1", "CD40L-induced NF-kB luciferase activity": "-14.7 ± 0.21"}
{"smiles": "O=C(O)COc1ccc2occ(C(=O)c3ccccc3)c2c1", "CD40L-induced NF-kB luciferase activity": "15 ± 1.8"}
{"smiles": "COC(=O)c1sccc1NC(=O)Nc1ccccc1F", "CD40L-induced NF-kB luciferase activity": "9.6 ± 1.5"}
{"smiles": "CCN(CC)c1ccc([C@H]2[C@@H]3CCCC[C@]3(O)CCN2CC(=O)NCc2ccco2)cc1", "CD40L-induced NF-kB luciferase activity": "-2.56 ± 3"}
{"smiles": "CC(C)OC(=O)c1ccc(NC(=O)c2cncc(Br)c2)cc1", "CD40L-induced NF-kB luciferase activity": "4.22 ± 5"}
{"smiles": "O=C(NC1CCCCC1)c1cc2nc(-c3ccco3)cc(C(F)(F)F)n2n1", "CD40L-induced NF-kB luciferase activity": "1.55 ± 1.8"}
{"smiles": "COc1ccc2c(c1OC)C(=O)N1C2SC[C@H]1C(=O)NC1CC(C)(C)NC(C)(C)C1", "note": "(stereo not given in full)", "CD40L-induced NF-kB luciferase activity": "-2.01 ± 0.25"}
{"smiles": "COc1ccc(C(=O)COc2ccc(F)cc2)c(O)c1", "CD40L-induced NF-kB luciferase activity": "50.7 ± 3.5"}
{"smiles": "O=C(c1ccc(-c2ccccc2)c(F)c1)C1CCCN(C(=O)c2cncs2)C1", "note": "(stereo not given)", "CD40L-induced NF-kB luciferase activity": "1.16 ± 0.81"}
{"smiles": "O=C(/C=C/c1ccc(F)cc1)NC(=S)N1CCCCC1c1cccnc1", "note": "(stereo not given)", "CD40L-induced NF-kB luciferase activity": "9.18 ± 3.1"}
{"smiles": "Cc1nc(NC(CC(C)C)C(=O)O)c2nc(C)oc2n1", "note": "(stereo not given)", "CD40L-induced NF-kB luciferase activity": "4.53 ± 5.9"}
{"smiles": "Cn1cc(CN2CCN(CCO)CC2)c(-c2ccc(Oc3ccccc3)cc2)n1", "CD40L-induced NF-kB luciferase activity": "2.68 ± 1.8"}
{"smiles": "O=C(/C=C/c1ccccc1)c1ccccc1", "CD40L-induced NF-kB luciferase activity": "28.7 ± 2.6"}
{"smiles": "O=C1Cc2ccccc2C(c2ccccc2)N1", "note": "(stereo not given)", "CD40L-induced NF-kB luciferase activity": "2.74 ± 0.35"}
{"smiles": "CCN1CCN(C(=S)c2ccc(OC)cc2)CC1", "CD40L-induced NF-kB luciferase activity": "-3.84 ± 2"}
{"smiles": "Cc1ncc([N+](=O)[O-])n1CCO", "CD40L-induced NF-kB luciferase activity": "-1.91 ± 3.7"}
{"smiles": "CCN(CC)CC#CCOC(=O)C(O)(c1ccccc1)C1CCCCC1", "note": "(stereo not given)", "CD40L-induced NF-kB luciferase activity": "-4.02 ± 0.34"}
{"smiles": "O=C(COc1ccc(F)cc1)OCCN1CCOCC1", "CD40L-induced NF-kB luciferase activity": "0.903 ± 1.5"}
{"smiles": "O=C1CC[C@@H](CN(Cc2ccccc2)Cc2cn[nH]c2-c2cc3ccccc3o2)N1", "CD40L-induced NF-kB luciferase activity": "-5.37 ± 1.6"}
{"smiles": "O=C(O)c1ccc(C(=O)C(=O)c2ccccc2)cc1", "CD40L-induced NF-kB luciferase activity": "-6.47 ± 15"}
{"smiles": "CCc1cc2c(=O)c(-c3nc(C)cs3)coc2cc1OC(C)C(=O)NCCO", "note": "(stereo not given)", "CD40L-induced NF-kB luciferase activity": "11.6 ± 4.8"}
{"smiles": "C=CCn1c(SCC(=O)NC2CCCCC2)nc2ccccc2c1=O", "CD40L-induced NF-kB luciferase activity": "3.45 ± 6.7"}
{"smiles": "COc1ccc2oc(=O)c(C(=O)Nc3ccccc3-c3ccccc3)cc2c1", "CD40L-induced NF-kB luciferase activity": "-2.83 ± 0.54"}
{"smiles": "CCN(CC)CCNC(=O)c1cc(S(C)(=O)=O)ccc1OC", "CD40L-induced NF-kB luciferase activity": "-0.512 ± 0.56"}
{"smiles": "N#CC(C(N)=O)=c1ccc2c(c1)N1C3=C(CCCC3)CC3CCCCC31N=2", "note": "(stereo not given)", "CD40L-induced NF-kB luciferase activity": "-1.04 ± 4.6"}
{"smiles": "O=C(CCCN1CC=C(n2c(=O)[nH]c3ccccc32)CC1)c1ccc(F)cc1", "CD40L-induced NF-kB luciferase activity": "-2.92 ± 5.7"}
{"smiles": "COc1cc2oc(-c3ccc(O)cc3)cc(=O)c2c(OC)c1O", "CD40L-induced NF-kB luciferase activity": "2.41 ± 4.4"}
{"smiles": "CN/C(=C/[N+](=O)[O-])NCCSCc1ccc(CN(C)C)o1", "CD40L-induced NF-kB luciferase activity": "-2.15 ± 1.7"}
{"smiles": "COc1ccc2cc(CCC(C)=O)ccc2c1", "CD40L-induced NF-kB luciferase activity": "59.9 ± 3.9"}
{"smiles": "CC(=O)N(CCC(Cc1ccccc1)c1ccc2c(c1)OCO2)Cc1ccc(Cl)cc1", "note": "(stereo not given)", "CD40L-induced NF-kB luciferase activity": "-5.42 ± 2.8"}
{"smiles": "O=C(O)c1ccccc1OCCOc1ccccc1", "CD40L-induced NF-kB luciferase activity": "0.457 ± 1.1"}
{"smiles": "CCn1cc(C(=O)O)c(=O)c2ccc(C)nc21", "CD40L-induced NF-kB luciferase activity": "-0.59 ± 2"}
{"smiles": "C#CCN(C)Cc1ccccc1", "CD40L-induced NF-kB luciferase activity": "0.832 ± 1.9"}
{"smiles": "O=c1c2ccccc2nnn1Cc1cccc2ccccc12", "CD40L-induced NF-kB luciferase activity": "0.833 ± 1.5"}
{"smiles": "CC(=O)N1CC23C=CC(CC2CC12CCCCCC2)O3", "note": "(stereo not given)", "CD40L-induced NF-kB luciferase activity": "-6.1 ± 1.8"}
{"smiles": "O=C(O)C1[C@H]2C(=O)N(C3CCCC3)C[C@]23C=C[C@H]1O3", "note": "(stereo not given in full)", "CD40L-induced NF-kB luciferase activity": "-0.855 ± 0.28"}
{"smiles": "CCc1cc2c(=O)c(-c3nc4ccccc4n3C)coc2c(CN2CCN(C)CC2)c1O", "CD40L-induced NF-kB luciferase activity": "-3.98 ± 2.5"}
{"smiles": "CC(C)(C)OC(=O)NCCC(=O)Oc1ccc2ccc(=O)oc2c1", "CD40L-induced NF-kB luciferase activity": "-4.48 ± 6"}
{"smiles": "CC(=O)Oc1ccc(C2OC(=O)c3ccccc3N2C(C)=O)cc1", "note": "(stereo not given)", "CD40L-induced NF-kB luciferase activity": "-32.9 ± 1"}
{"smiles": "COc1ccc(OC)c(-n2c(Cn3c(-c4ccccn4)nc4ccccc43)n[nH]c2=S)c1", "CD40L-induced NF-kB luciferase activity": "-3.66 ± 2"}
